Results from PubChem BioAssay AID1768 (National Center for Advancing Translational Sciences (NCATS), 2009).
“And” between values parts separate entries of the source, which are not always exact repeats. Equal entries are not always repeated. Out of some 270,000 compounds screened, about 620 (0.23%) were called active. Inconclusive results, whose numbers are uncertain, are shown with a selection of clear calls. Calls follow the shape of the dose curve; as a rule, active = well fitted inhibition curve with a large enough effect in the polarisation, with a control signal flat (not every such curve was filed as active); inconclusive = small, poorly fitted or top-dose-only effect, or effect the other way, or a change in a side signal; inactive = no such curve, though single readings can be large or run the other way; the % refers to the polarisation. Where the call is inconclusive, the potency comes from a doubtful curve fit. “Side channel” marks fits to a control or component signal instead of the main read-out.

Target: Menin (Homo sapiens) (UniProt O00255)
Chain of UniProt O00255 (O00255 whole entry, looked up): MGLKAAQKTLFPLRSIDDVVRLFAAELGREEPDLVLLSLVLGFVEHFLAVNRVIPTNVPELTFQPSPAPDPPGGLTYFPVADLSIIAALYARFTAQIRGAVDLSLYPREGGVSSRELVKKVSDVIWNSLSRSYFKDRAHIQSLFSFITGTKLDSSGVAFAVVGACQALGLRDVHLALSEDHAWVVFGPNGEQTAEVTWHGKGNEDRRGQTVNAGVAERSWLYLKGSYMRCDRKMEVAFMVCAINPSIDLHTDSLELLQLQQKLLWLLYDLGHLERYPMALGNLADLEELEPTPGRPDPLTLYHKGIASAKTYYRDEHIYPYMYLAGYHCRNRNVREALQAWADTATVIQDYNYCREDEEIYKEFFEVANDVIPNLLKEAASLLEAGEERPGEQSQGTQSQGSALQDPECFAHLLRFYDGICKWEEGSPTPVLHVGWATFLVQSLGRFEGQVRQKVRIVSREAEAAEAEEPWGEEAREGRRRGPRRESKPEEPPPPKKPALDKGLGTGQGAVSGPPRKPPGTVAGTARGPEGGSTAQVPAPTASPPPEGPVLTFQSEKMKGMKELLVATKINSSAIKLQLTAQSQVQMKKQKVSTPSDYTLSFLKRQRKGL
Experiment: qHTS Assay for Inhibitors Targeting the Menin-MLL Interaction in MLL Related Leukemias: Competition With Texas Red Labeled MLL-derived Mutant Peptide; as to FP activity change, negative = inhibition: % of control where 0% means no effect
Conditions: fluorescence polarization; series mostly up to 61.6 µM; FP activity change, negative = inhibition: at the top concentration
Potency is read from the fitted curve at half-maximal effect; tags tell the direction and shape of the fitted curve or compound fluorescence and quenching.

Row | Compound | Potency | FP activity change, negative = inhibition
1 | CSc1ccc(CN2CCN(C(=O)COc3cccc(C)c3)CC2)cc1 | inconclusive: 15.8 µM [fluorescent, side channel, partial curve] | 
2 | CC(C)CC(=O)Nc1ccc(C(=O)Cn2c(=O)oc3ccccc32)cc1 | inconclusive: 39.8 µM [quencher, side channel, single point] | 
3 | Cn1cccc1/C=C1\C(=O)NC(=O)N(CCC2=CCCCC2)C1=O | inconclusive: 28.2 µM [quencher, side channel, single point] | 
4 | Cl.Cl.Cl.Cl.Cl.Cl.N.N.N.N.NNNNN.NNNNN.O.O.[Ru].[Ru].[Ru] | inconclusive: 35.5 µM [inhibitor, partial curve] | 
5 | OC(CC#CCN1CCCCCC1)(c1ccccc1)C1CCCC1 (stereo not drawn) | inconclusive: 8.91 µM [fluorescent, side channel, partial curve] | 
6 | CSc1ncc(/C=C2/C(=O)NC(=O)N(C3CCCCC3)C2=O)cn1 | inconclusive: 7.94 µM [quencher, side channel, partial curve] | 
7 | CC(C)[C@@]1(NC(=O)[C@@H]2C[C@@H]3c4cccc5[nH]cc(c45)C[C@H]3N(C)C2)O[C@@]2(O)C3CCCN3C(=O)[C@H](Cc3ccccc3)N2C1=O (stereo partly drawn) |  | inactive: -5.86%
8 | C[C@H](CCC(=O)O)[C@H]1CC[C@@H]2[C@H]3[C@@H](CC[C@@]21C)[C@]1(C)CC[C@H](O)C[C@@H]1C[C@@H]3O | inconclusive: 15.8 µM [inhibitor, partial curve] | 
9 | COc1cc(Cn2c(N)c(C(=O)NCc3ccco3)c3nc4ccccc4nc32)cc(OC)c1OC | inconclusive: 35.5 µM [quencher, side channel, single point] | 
10 | Clc1ccc(CNCCc2ccc3c(c2)OCO3)cc1 | inconclusive: 39.8 µM [inhibitor, single point] | 
11 | CC(C)COP(=O)(c1ccc(N(C)C)cc1)C(O)c1ccc(Br)cc1 (stereo not drawn) | inconclusive: 8.91 µM [fluorescent, side channel, full curve, poor fit] | 
12 | CCN(CC)c1ccc(NC(=O)c2cccc(C)c2)cc1S(=O)(=O)Nc1ccccc1OC | inconclusive: 39.8 µM [inhibitor, single point] | 
13 | c1ccc2nc(OCCN3CC3)ccc2c1 | inconclusive: 22.4 µM [fluorescent, side channel, single point] | 
14 | C=CCN1CCc2cccc3c2[C@H]1Cc1ccc(O)c(O)c1-3 |  | inactive: 6.69%
15 | CCOc1ccc(NC(=O)C2C(C(=O)O)C3(Cl)C(Cl)=C(Cl)C2(Cl)C3(Cl)Cl)cc1 (stereo not drawn) | inconclusive: 14.1 µM [quencher, side channel, single point] | 
16 | Cc1cccc(NC(=O)C(C)N2CC=C(c3ccccc3)CC2)c1 (stereo not drawn) | inconclusive: 31.6 µM [fluorescent, side channel, single point] | 
17 | CCOC(=O)N1CCN(CC(O)COCCC23CC4CC(CC(C4)C2)C3)CC1 (stereo not drawn) | inconclusive: 17.8 µM [fluorescent, side channel, partial curve] | 
18 | COc1ccccc1CN1CCCC(C(=O)c2ccccc2OC)C1 (stereo not drawn) |  | inactive: -11.2%
19 | COc1cc(/C=C2/SC(=S)N(Cc3ccccc3)C2=O)ccc1OCC(=O)O | inconclusive: 39.8 µM [quencher, side channel, single point] | 
20 | COP(=O)(/C=C(\Cl)c1ccccc1)/C=C(\Cl)c1ccccc1 | inconclusive: 12.6 µM [fluorescent, side channel, partial curve] | 

Row | Compound | Potency | FP activity change, negative = inhibition
21 | COc1cc(C)c(-c2nc(CN3C[C@@H]4C[C@@H](C3)c3cccc(=O)n3C4)c(C)o2)cc1C | inconclusive: 2.24 µM [fluorescent, side channel, full curve] | 
22 | c1ccc2c(c1)OC[C@@H](C1=NCCN1)O2 | inconclusive: 14.1 µM [inhibitor, partial curve] | 
23 | COc1ccc(Cn2c(N)c(C(=O)NCc3ccco3)c3nc4ccccc4nc32)cc1 | inconclusive: 12.6 µM [quencher, side channel, partial curve] | 
24 | N#Cc1ccc(CN2CC3(CCNCC3)C2)cc1 |  | inactive: -3.18%
25 | Fc1ccc(CCNCc2ccc(Cl)c(Cl)c2)cc1 |  | inactive: 10.2%
26 | N[C@@H](Cc1cc(Br)c(O)c(Br)c1)C(=O)O |  | inactive: 9.9%
27 | CC(C)(Cc1c[nH]c2ccc(Cl)cc12)NCCOc1ccccc1OCC1CC1 | inconclusive: 3.55 µM [fluorescent, side channel, full curve] | 
28 | Cc1cc(NC(=O)COC(=O)c2c(C)nn(Cc3ccccc3)c2C)no1 | inconclusive: 39.8 µM [fluorescent, side channel, single point] | 
29 | Cc1cc2cc(CNC(=O)Nc3ccc(Cl)c(Cl)c3)ccc2n1C | inconclusive: 39.8 µM [fluorescent, side channel, single point] | 
30 | COC1(C)CC(c2ccccc2)c2c(c3ccccc3oc2=O)O1 (stereo not drawn) |  | inactive: -6.04%
31 | CCOP(=O)(OCC)C(CC)N1CCOCC1 (stereo not drawn) |  | inactive: 0.103%
32 | Cc1cc(NC(=O)c2noc3c2CCCCC3)no1 | inconclusive: 0.708 µM [inhibitor, partial curve, poor fit] | 
33 | CCCCC1(CCCC)C(=O)NC(=Nc2cccc(C)c2)NC1=O | inconclusive: 39.8 µM [fluorescent, side channel, single point] | 
34 | O=c1oc2ccccc2c(O)c1Cc1c(O)c2ccccc2oc1=O | inconclusive: 12.6 µM [quencher, side channel, partial curve] | 
35 | CCCCN1C2CCC1CC(OC(c1ccc(F)cc1)c1ccc(F)cc1)C2 (stereo not drawn) | inconclusive: 7.08 µM [fluorescent, side channel, partial curve] | 
36 | Cc1ccc(-c2n[nH]c(=S)n2-c2ccccc2)cc1 | inconclusive: 39.8 µM [inhibitor, single point] | 
37 | O=C(O)C1Cc2ccccc2N2CCCC12 (stereo not drawn) | inconclusive: 12.6 µM [inhibitor, partial curve] | 
38 | CC(C)N1C(=S)SC(C)(C)C1n1oc(=O)n(-c2cccc(Cl)c2)c1=O (stereo not drawn) | inconclusive: 7.94 µM [quencher, side channel, partial curve] | 
39 | Cn1c2ccccc2c2cnn(CC(=O)N3CCC4(CC3)OCCO4)c(=O)c21 |  | inactive: -22%
40 | COc1ccc(C(CC(=O)N2CCC3(CC2)OCCO3)NS(=O)(=O)c2ccc(F)cc2)cc1 (stereo not drawn) |  | inactive: -0.331%

Row | Compound | Potency | FP activity change, negative = inhibition
41 | O=[N+]([O-])c1cc(I)c(O)c(I)c1 | inconclusive: 28.2 µM [quencher, side channel, partial curve] | 
42 | CN(C)c1ccc(NC(=O)Oc2ccccc2)cc1 | inconclusive: 3.98 µM [fluorescent, side channel, single point] | 
43 | c1ccc2c(c1)[I+]c1ccccc1-2 | inconclusive: 35.5 µM [inhibitor, single point] | 
44 | O=C(Nc1ccc(Oc2ccc(Cl)cc2)c(Cl)c1)c1cc(I)cc(I)c1O | inconclusive: 22.4 µM [quencher, side channel, partial curve] and inconclusive: 8.91 µM [quencher, side channel, partial curve] | 
45 | CCCCn1c(O)c(C=NC2CC3CCC2(C)C3(C)C)c(=O)[nH]c1=O (stereo not drawn) | inconclusive: 17.8 µM [fluorescent, side channel, partial curve] | 
46 | O=C1NC(=O)N(c2ccc3c(c2)OCO3)C(=O)/C1=C/c1cccs1 |  | inactive: 33.4%
47 | Cc1c(Cc2ccccc2)c(=O)oc2cc(OCc3ccc(C(=O)O)cc3)ccc12 | inconclusive: 22.4 µM [quencher, side channel, partial curve] | 
48 | COc1ccc2c(c[n+](C)c3c4cc5c(cc4ccc23)OCO5)c1OC | inactive | 
49 | C/C(=N\NC(=O)c1ccccc1Cl)c1c(O)n(C2CCCCC2)c(=O)[nH]c1=O | inconclusive: 12.6 µM [quencher, side channel, partial curve] | 
50 | CC1=CC(=C2C(=O)NC(=S)NC2=O)C=C(C(F)(F)F)N1Cc1ccccc1 | inconclusive: 28.2 µM [fluorescent, side channel, single point] | 
51 | CCCCCn1c(=O)c(C(=O)Nc2cc(C)ccn2)c(O)c2ccccc21 | inconclusive: 3.98 µM [inhibitor, full curve, poor fit] | 
52 | O=c1c2cc(N3CCOCC3)ccc2[nH]c(=S)n1Cc1ccc(Cl)cc1 | inconclusive: 6.31 µM [quencher, side channel, partial curve] | 
53 | COc1ccc2o/c(=N\O)c(C(=O)Nc3ccc(C)cc3)cc2c1 | inconclusive: 3.55 µM [quencher, side channel, partial curve] | 
54 | CC(Cc1ccccc1)N1Cc2ccccc2C1 (stereo not drawn) | inconclusive: 22.4 µM [inhibitor, partial curve] | 
55 | Cc1nn(Cc2ccccc2Cl)c(C)c1C(=O)OCC(=O)NC1CCCC(C)C1C (stereo not drawn) | inconclusive: 1.78 µM [inhibitor, partial curve] | 
56 | C/C(=N\Nc1cccc2ccccc12)c1c(O)n(Cc2ccccc2)c(=O)[nH]c1=O | inconclusive: 22.4 µM [quencher, side channel, partial curve] | 
57 | COc1cccc2c1C(=O)c1c(O)c3c(c(O)c1C2=O)C[C@@](O)(C(=O)CO)C[C@@H]3O[C@H]1C[C@H](N)[C@H](OC2CCCCO2)[C@H](C)O1 (stereo partly drawn) | inconclusive: 14.1 µM [fluorescent, side channel, partial curve] | 
58 | CC(C)c1ccc(C2NCc3ccccc3-n3cccc32)cc1 (stereo not drawn) | inconclusive: 31.6 µM [fluorescent, side channel, partial curve] | 
